Data: the supplement of paper PMC11417369
The other results are listed elsewhere or left out.

test system: PfAP2-HC AP2 domain (GST-tagged); assay: gcPBM binding intensity (ln(normalized median fluorescence intensity)); higher = stronger DNA binding
Summary of the method: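 GST-tagged P. falciparum DNA-binding domains, expressed in E. coli (about 25 μg on average), were applied for 1 h to an Agilent 4 × 180k array of primer-extended double-stranded 36-bp intergenic genomic probes plus negative controls. The binding buffer was 1× PBS with 1% milk, 0.2 mg/ml BSA, 0.5% salmon testes DNA and 0.03% Triton X-100. Bound protein was detected with Alexa488 anti-GST antibody and scanned at 488 nm. Binding intensity is the highest Masliner-normalised natural-log median intensity across replicate spots of either probe orientation.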

Row | Sequence | gcPBM binding intensity (ln)
1 | CCTAATTTTTTTAGTTGTACTTTTTTTTTTTTTTAT [XGTACX_site7948] | 9.58
2 | AATGTGTTCATATATGCACACGCATATATATTATTG [CACACA_site9274] | 9.79
3 | TTTATAAATTGACACACACACATGTGAACATAAAAA [CACACA_site6978] | 10.1
4 | AATTATATATTATCATGTACAAATATAGTAATACAA [XGTACX_site6845] | 9.68
5 | AAAAAAAAAAAAAATAGTACGTAACTATAATTTCCT [XGTACX_site2457] | 9.65
6 | AAATTATAAGTAAAAAGTACTTAATATATAATAAAC [XGTACX_site6065] | 9.74
7 | CTTATACTTCTACATCGTACAAAAGATGGTATAATT [XGTACX_site2698] | 9.55
8 | TAACTTAAATAATACATACACACATGTACATACAGA [CACACA_site1594] | 10.2
9 | TATAATTTTTTTTGGGTGCTTGGGTAAATTTTATTA | 10
10 | CACGAAAAAAAAAAATGTACATAAAAATATGATACA [XGTACX_site2536] | 9.48
11 | AAAAAAAAAAAAAAAAAAAAAGGACGGATGGATGGA [GTGCAC_negctrl_site527] | 9.62
12 | TCTCATTTCAACAACAGTACATATCTATCTGTGTAT [XGTACX_site6897] | 9.75
13 | GAAAGAGAAATATATACACACATATTTATATTTTTA [CACACA_site2066] | 9.83
14 | ATACGTATATAATATACATGCATATATAGCACATAC [TGCATGCA_site376] | 9.83
15 | ATAAAAAAAAAAAAAAATGAAGCATCACCGTGTAAT [XGTACX_negctrl_site288] | 9.65
16 | TTTAATATGAATTTATGTACATATATATATATATAT [XGTACX_site6337] | 9.72
17 | TATATTAAAAAAAAATGTACATATATATAATATATA [XGTACX_site1935] | 9.5
18 | ATTTTTATTTTCTTTACACACCACATAACTTTTTTT [CACACA_site7826] | 9.94
19 | ATATATATATATATATGTACATATATCTACATATAT [XGTACX_site7588] | 10.1
20 | ACTTTTTAATATTTTAGTACACAGTAATTCTTACTA [XGTACX_site1425] | 9.75
21 | AAAAAAAAAAAATACACACACATATATATATATATA [CACACA_site2224] | 10.3
22 | TATGTAATAAATAGTACACACACACCGATATATATA [CACACA_site8389] | 10.3
23 | TATAATAATATTATAGTGCATATTATTTATATATAA [GTGCAC_site9820] | 9.55

Row | Sequence | gcPBM binding intensity (ln)
24 | AAAAAGTGATTAAAATGTACAAAATGCATAAAAGAA [XGTACX_site6625] | 10
25 | AAAGTAAAAAAAAAAACATGCATACGCTAATTTTTA [TGCATGCA_site301] | 9.38
26 | GATATGTTAAATATATGTACATATATAAACCCAAAC [XGTACX_site6601] | 9.88
27 | ATTTTAATACTTTTATATTAAATGTAGCACATCATA [XGTACX_negctrl_site273] | 9.45
28 | CATTTTTTGCTTTCAACACACATACAATATAAATAA [CACACA_site7858] | 9.62
29 | TTATTTATTTAGTAGTGTACTTTTTATATTTATAAT [XGTACX_site5978] | 9.57
30 | TATCATATAAAACATGCACACATATGTACTCTTATA [CACACA_site9249] | 9.93
31 | AAAAAATAAGATTGTACACACATAAATTCTTTGTCA [CACACA_site2089] | 9.84
32 | CGTTCTATTTAGATATGTACTTAAATATATGATCAT [XGTACX_site2936] | 9.61
33 | ATCATTTATTTTTTAAAAGTATATATATATATATAT [CACACA_negctrl_site220] | 9.59
34 | TTAATAAAAATATATCCACACACATATATATATATG [CACACA_site8091] | 9.98
35 | TTTTTTTTTTTTTAAATAATCATACATGTGAAATTG [GTGCAC_negctrl_site328] | 9.23
36 | ACATATTATAACATATGTACATATATATATATATAA [XGTACX_site5567] | 9.69
37 | AAATATAAGTTTTATTGTACATTATATAGCATATTT [XGTACX_site6618] | 9.6
38 | TTTTGACATTAACTTAAAAAATAAATAATTATAAAA [XGTACX_negctrl_site552] | 9.11
39 | TATATATATATAAGTGCACACTGAACCAAGAAAATT [CACACA_site5637] | 9.89
40 | TATGTCTTGTTGTAAAATATTTATTAACAAATTGGC [CACACA_negctrl_site1452] | 9.34
41 | TTATAAAACACAAAATGTACAAAAAATTATAATTAA [XGTACX_site6859] | 9.71
42 | TTAAAGAATATTTTCACACATAAAAATTTTAATTTA [CACACA_site4290] | 9.32
43 | AATATTATTATCTTACCACACACAATCTACGAAAAG [CACACA_site8006] | 10.3
44 | CACATAAAATAAGGTGCATGCAAACGAGAAAATAAA [TGCATGCA_site75] | 10.1
45 | AAAAAAAATATATTACAAAACTTAGGATCCTAATAT [CACACA_negctrl_site470] | 9.62
